Experimental data taken from the supplement of paper PMC8285479.
Structures can show the parent of a compound that is named as a salt. ± gives the standard deviation of the averaged measurements. Over roughly 1,900 compounds, “normalised cell viability (NPI; 0 = phenylarsine oxide control, 1 = DMSO control)” has its median near 1; the lowest 2% begin near 0.039. The list shows a part of the results.

System: NCI-H1944
Test: normalised cell viability (NPI; 0 = phenylarsine oxide control, 1 = DMSO control) (fraction of DMSO control); NCI-H1944 is a non-small cell lung cancer line; higher = more viable cells (less compound toxicity)
Details: 6 days
[1] = glucocorticoid arm: hydrocortisone 2.75 uM co-treatment, compound 1 µM
[2] = glucocorticoid arm: hydrocortisone 2.75 uM co-treatment, compound 5 µM
[3] = glucocorticoid arm: hydrocortisone 2.75 uM pre-treated 2 days and continued, compound 1 µM
[4] = glucocorticoid arm: hydrocortisone 2.75 uM pre-treated 2 days and continued, compound 5 µM
[5] = glucocorticoid arm: vehicle, compound 1 µM
[6] = glucocorticoid arm: vehicle, compound 5 µM
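Note: CTB read-out in 384-well plates, mean of triplicate wells, normalised per plate against 1 µM phenylarsine oxide and 0.1% DMSO, compounds added 24 h after seeding.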

| Compound | normalised cell viability [1] | normalised cell viability [2] | normalised cell viability [3] | normalised cell viability [4] | normalised cell viability [5] | normalised cell viability [6] |
| --- | --- | --- | --- | --- | --- | --- |
| c1ccc(CN2CCC3(CCCc4ccccc43)CC2)cc1 [L-687,384 hydrochloride] | 1 ± 0.0092 | 0.956 ± 0.024 | 1.002 ± 0.0072 | 1.007 ± 0.0058 | 1.003 ± 0.0064 | 1.01 ± 0.02 |
| CCC(CC)(NC(=O)C(C)C)C(=O)N[C@@H](CCCN=C(N)N)C(=O)NC1(C(=O)NC(c2ccc(F)cc2)c2ccc(F)cc2)CCCC1 | 0.984 ± 0.021 | 1.01 ± 0.032 | 0.9793 ± 0.0042 | 1.02 ± 0.022 | 0.988 ± 0.01 | 0.9913 ± 0.0081 |
| Cc1cc(Nc2ncc(Cl)c(Nc3ccccc3S(=O)(=O)C(C)C)n2)c(OC(C)C)cc1C1CCNCC1 | 0.708 ± 0.036 | 0.597 ± 0.052 | 0.783 ± 0.013 | 0.615 ± 0.1 | 0.9737 ± 0.0031 | 0.953 ± 0.0053 |
| C[C@@H](Oc1cc(-c2cnn(C3CCNCC3)c2)cnc1N)c1c(Cl)ccc(F)c1Cl | 1.01 |  |  |  |  |  |
| CCCc1c(OCCCOc2ccc(OCC(=O)O)cc2)ccc(C(C)=O)c1O | 1.01 ± 0.013 | 0.994 ± 0.015 | 1.01 ± 0.02 | 0.988 ± 0.022 | 0.9997 ± 0.0096 | 0.9993 ± 0.0011 |
| CC1=C(C(=O)O)N2C(=O)[C@@H](NC(=O)[C@H](N)c3ccccc3)[C@H]2SC1 [Cephalexin hydrate] | 1.003 ± 0.0064 | 1.01 ± 0.012 | 1.01 ± 0.01 | 0.996 ± 0.035 | 0.9907 ± 0.0051 | 0.998 ± 0.001 |
| CC(C)(C)OC(=O)Nc1ccc(-c2cc(C(=O)NCCCCCCC(=O)NO)no2)cc1 | 0.9572 ± 0.0081 | 0.244 ± 0.23 | 0.991 ± 0.025 | 0.677 ± 0.31 | 0.806 ± 0.15 | 0.0189 ± 0.02 |
| O=C(OCCN1CCCCC1)c1c[nH]c2ccccc12 | 0.983 ± 0.016 | 0.951 ± 0.022 | 0.9873 ± 0.0064 | 0.955 ± 0.036 | 0.9787 ± 0.0025 | 0.975 ± 0.0035 |
| C[C@H](CCC(=O)NCCS(=O)(=O)O)[C@H]1CC[C@H]2[C@@H]3[C@H](O)C[C@@H]4C[C@H](O)CC[C@]4(C)[C@H]3C[C@H](O)[C@]12C [Taurocholic acid sodium salt hydrate] | 1.001 ± 0.009 | 1.01 ± 0.01 | 0.9973 ± 0.0046 | 1.005 ± 0.0071 | 0.987 ± 0.0082 | 0.9903 ± 0.0075 |
| Nc1ccccc1NC(=O)c1ccc(CNc2nccc(-c3cccnc3)n2)cc1 [Mocetinostat (MGCD0103)] | 1.033 ± 0.0058 | 0.00494 ± 0.0024 | 1.02 ± 0.02 | 0.0153 ± 0.0051 | 0.585 ± 0.02 | 0.00194 ± 0.00024 |
| CCCn1c(=O)c2[nH]c(-c3ccc(OCC(=O)NCCN)cc3)nc2n(CCC)c1=O [Xanthine amine congener] | 0.998 ± 0.0035 | 0.999 ± 0.0098 | 1.02 ± 0.017 | 1.01 ± 0.017 | 1.02 | 1.017 ± 0.0058 |
| CC[C@@H]1Cc2cc(O)ccc2C2=C1c1ccc(O)cc1C[C@H]2CC [(R,R)-cis-Diethyl tetrahydro-2,8-chrysenediol] | 0.979 ± 0.015 | 0.897 ± 0.015 | 0.9867 ± 0.0086 | 1.01 ± 0.015 | 0.9853 ± 0.0091 | 0.987 ± 0.011 |
| Cc1c2oc3c(C)ccc(C(=O)N[C@@H]4C(=O)N[C@H](C(C)C)C(=O)N5CCC[C@H]5C(=O)N(C)CC(=O)N(C)[C@@H](C(C)C)C(=O)O[C@@H]4C)c3nc-2c(C(=O)N[C@@H]2C(=O)N[C@H](C(C)C)C(=O)N3CCC[C@H]3C(=O)N(C)CC(=O)N(C)[C@@H](C(C)C)C(=O)O[C@@H]2C)c(N)c1=O [Dactinomycin] | 0.0161 ± 0.0015 | 0.0688 ± 0.0039 | 0.0397 ± 0.0056 | 0.183 ± 0.016 | 0.0046 ± 0.00021 | 0.0187 ± 0.0011 |
| Cc1nccn1CC1CCc2c(c3ccccc3n2C)C1=O (stereo not given) [Ondansetron HCl] | 1.02 ± 0.015 | 1.03 ± 0.038 | 1.02 ± 0.011 | 1.04 ± 0.01 | 1.006 ± 0.0063 | 1.005 ± 0.0081 |
| O=c1c2ccccc2[nH]c(=S)n1CCN1CCC(=C(c2ccc(F)cc2)c2ccc(F)cc2)CC1 [Diacylglycerol Kinase Inhibitor II] | 1.013 ± 0.0058 | 0.987 ± 0.022 | 1.006 ± 0.0063 | 1 ± 0.024 | 1.013 ± 0.0058 | 1.017 ± 0.0058 |
